Assay results published in PubChem BioAssay AID1508642 (National Center for Advancing Translational Sciences (NCATS), 2021).
Among all 43,000 compounds or so, about 200 (0.47%) were called active. Inconclusive results (about 12%) are left out. The call rests on the fitted dose curve; in most records, active means well fitted cell-killing curve with a large enough effect; inconclusive means small, poorly fitted or top-dose-only effect, or effect the other way; inactive means flat fitted curve, though single readings scatter. The list shows a part of the results.

Assay: Cell viability qHTS assay in S16 Pmp22-F2sN cells; further: nearly all actives have a fitted effect of over 65% in size
Conditions: S16 Pmp22-F2sN Schwann cells viability, CellTiter-Glo, 24 h; series mostly up to 57.5 µM; activity change, negative = cytotoxicity: at the top concentration
How it was run: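 S16 Pmp22-F2sN Schwann cells (500-1,000/well) in phenol-red-free DMEM with 10% FBS received 23 nL compound by pin tool for 24 h at 37 °C. Viability was then read as CellTiter-Glo luminescence after 15 min at room temperature.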
On the % scale 0 is the no-effect control and ±100 the full control effect; potency means the concentration at half of the fitted maximal effect.

| Compound | activity change, negative = cytotoxicity | Potency |
| --- | --- | --- |
| O=c1ccc(-c2ccccc2)nn1Cc1ccc(F)cc1Cl | inactive: -11.7% |  |
| Cc1cccc(NC(=O)CN2C(=O)c3cccc4cccc2c34)c1C | inactive: -2.52% |  |
| CCCN1CCN(c2ncnc3sc(C(=O)Nc4c(C)cc(C)cc4C)c(C)c23)CC1 |  | active: 25.1 µM |
| CCOC(=O)N1CCC2(CC1)OC(=O)C(C)=C2C(=O)NCc1cccc(F)c1 | inactive: 11% |  |
| CCC1CN(S(=O)(=O)c2cc(-c3onc(C)c3C)ccc2C)c2cc(Cl)ccc2O1 (stereo not given) | inactive: -0.0797% |  |
| NC(=O)C1(N2CCCCC2)CCN(C(=O)Nc2ccc(F)cc2F)CC1 | inactive: 3.9% |  |
| CCc1ccc(C(=O)c2cn(CC(=O)Nc3ccc(OC)cc3)c3cc4c(cc3c2=O)OCO4)cc1 | inactive: 9.76% |  |
| CC(C)CCN(C(=O)Nc1ccccc1)C(C)c1cccs1 (stereo not given) | inactive: 3% |  |
| Cc1cc(C)c(Cn2c(C3CC(=O)N(c4ccc(F)cc4)C3)nc3ccccc32)c(C)c1 (stereo not given) | inactive: 20.7% |  |
| CC(C)OC(=O)c1c(-c2ccccc2)c(-c2ccccc2)nn(C)c1=O | inactive: -15% |  |
| CCOC(=O)c1ccc(NC(=O)CCn2ccc(C)n2)cc1 | inactive: -1.28% |  |
| COc1cccc(NC(=O)CSc2nc(=O)n(Cc3ccncc3)c3c2CCC3)c1 | inactive: -3.94% |  |
| O=C(NCc1cccs1)C1CCN(C(=O)N2CCOc3ccc(Cl)cc32)CC1 | inactive: -15.1% |  |
| CC(=O)N1CCc2cc(S(=O)(=O)NC(Cc3ccccc3)C(=O)NCc3ccc(C)cc3)ccc21 (stereo not given) | inactive: -12.6% |  |
| CNS(=O)(=O)c1cn(CC(=O)Nc2ccc(C(C)=O)cc2)cc1S(=O)(=O)NC | inactive: 14.5% |  |
| Cc1ccc(CN2CCN(C3CCN(C(=O)Nc4ccc(C)cc4Cl)CC3)C(=O)C2=O)cc1 | inactive: 11.4% |  |
| CC(=O)N1CCc2cc(CNC(=O)c3ccccc3Br)ccc21 | inactive: 10.4% |  |
| CCCCNS(=O)(=O)c1ccc(C)c(-c2nnc3c4ccccc4c(C)nn23)c1 | inactive: -16.2% |  |
| COc1ccc(CCNC(=O)C2CCN(S(=O)(=O)c3c(C)noc3/C=C/c3ccc(C)cc3)CC2)cc1OC | inactive: 5.44% |  |
| COc1ccccc1NC(=O)CSC1=Nc2ccccc2C2=NC(CC(=O)NCc3ccccc3)C(=O)N12 (stereo not given) | inactive: 4.39% |  |

| Compound | activity change, negative = cytotoxicity | Potency |
| --- | --- | --- |
| CCOc1ccc(NC(=O)C2CCCN(c3nnc(C)c4c(C)n(-c5ccccc5)nc34)C2)cc1 (stereo not given) | inactive: -0.177% |  |
| Cn1c(=O)c2c(nc(N3CCOCC3)n2Cc2ccc(Br)cc2)n(C)c1=O | inactive: 1.48% |  |
| Cc1ccc(S(=O)(=O)N2CCc3cc(C(=O)Nc4c(F)cccc4F)ccc32)cc1 | inactive: 0.747% |  |
| CCC(C(=O)N1CCN(c2cc(C)ccc2C)CC1)n1nc(C)n2c(cc3occc32)c1=O (stereo not given) | inactive: -17.7% |  |
| CCOC(=O)Cn1c(=O)n(C2CCCCC2)c2nc(-c3ccc(C(C)C)cc3)nc(C(N)=O)c21 | inactive: 23.8% |  |
| Cc1ccc2c(CN3CCN(C(=O)c4ccc(Br)cc4)CC3)cc(=O)oc2c1 | inactive: -22.2% |  |
| O=C(CSc1ccc(-c2ccccn2)nn1)Nc1ccc(F)cc1F | inactive: 11.6% |  |
| Cc1ccc(CN2CCN(C3CCNCC3)C(=O)C2=O)cc1 | inactive: 16.3% |  |
| Cc1ccc2nc(NC(=O)CSc3ncc(C(=O)Nc4ccc(F)cc4)c(=O)n3C)sc2c1 | inactive: 25.8% |  |
| CCc1ccc(NC(=O)Cn2c(=O)n(-c3ccc(OC)cc3)c(=O)c3ccc(C(=O)NCc4ccc(C)cc4)cc32)cc1 | inactive: -7.8% |  |
| Cc1ccc(CNC(=O)CCNS(=O)(=O)c2cccc3nsnc23)cc1 | inactive: -2.87% |  |
| CCn1cc(C(=O)N(C)c2ccc(C(C)C)cc2)c2cc(OC)c(OC)cc2c1=O | inactive: -18.4% |  |
| CCc1ccc(-n2nc(C)c3c(C)cc(=O)n(CC(=O)Nc4ccc(F)cc4C)c32)cc1 | inactive: 23.7% |  |
| COCCn1cc(C(=O)NCCCOC(C)C)c2c3ccccc3n(C)c2c1=O | inactive: 13.6% |  |
| COc1ccc(CNC(=O)Cc2ccc(NC(=O)N3CCSc4ncccc43)cc2)cc1 | inactive: -4.63% |  |
| Cc1ccc(Cc2nc3ccccc3nc2SCC(=O)N2CCN(c3ccc(F)cc3)CC2)cc1 | inactive: 1.89% |  |
| CCOC(=O)c1noc2nc(C)n(Cc3cccc([N+](=O)[O-])c3)c(=O)c12 | inactive: -18.5% |  |
| CCc1ccc2oc(C(=O)Nc3cc(C)ccc3C)cc(=O)c2c1 | inactive: -0.189% |  |
| O=C(Nc1cc2c(cc1C(=O)c1ccccc1Cl)OCCO2)c1ccccc1 | inactive: -0.0035% |  |
| CC(C)c1nn2c(=O)cc(COC(=O)c3ccccc3NC(=O)C3CCCCC3)nc2s1 | inactive: 27% |  |

| Compound | activity change, negative = cytotoxicity | Potency |
| --- | --- | --- |
| CC(=O)c1ccc(Nc2cc(C)nc3nc(Cc4ccc(Cl)cc4)nn23)cc1 | inactive: -1.49% |  |
| CC1Cc2ccccc2N1C(=O)CSc1nnc(-c2ccccc2Cl)o1 (stereo not given) | inactive: 13.6% |  |
| CN(C)c1ccc(CNC(=O)c2ccccc2NC(=O)c2nsc3ccccc23)cc1 | inactive: 17.4% |  |
| Cc1ccc(NC(=O)Cn2ccn(-c3ccccc3)c(=O)c2=O)cc1 | inactive: 4.87% |  |
| CCN(C(=O)CSc1nc2ccccc2[nH]1)c1ccccc1 | inactive: 5.25% |  |
| Cc1ccc(Cn2cc(S(=O)(=O)c3cccc(Cl)c3)c(=O)c3cc(F)c(N4CCOCC4)cc32)cc1 | inactive: -2.49% |  |
| CCOc1ccc(C2NC(=O)c3c(COC)cc(C)nc3N2Cc2ccccc2)cc1OC (stereo not given) | inactive: 5.91% |  |
| CCCOc1ccc(CNC(=O)c2ccc(-n3c(C)cc4c3CCC(C)C4)cc2)cc1 (stereo not given) | inactive: 13.9% |  |
| Cc1cc2oc(C(=O)Nc3ccc(S(=O)(=O)Nc4ncccn4)cc3)cc(=O)c2cc1C | inactive: 6.72% |  |
| COc1ccccc1-c1noc(CCC(=O)Nc2ccc(C)cc2C)n1 | inactive: 0.0357% |  |
| Cc1ccc(NC(=O)C2CCCN(S(=O)(=O)c3cn(C(C)C)cn3)C2)c(C)c1 (stereo not given) | inactive: -4.67% |  |
| Cc1ccc(C)c(N2CCN(C(=O)c3ccc4c(c3)N(Cc3ccc(F)cc3)C(=O)c3ccccc3S4=O)CC2)c1 (stereo not given) | inactive: 28.2% |  |
| COc1cc(OC)c(NC(=O)CCc2c(C)nc3cc(-c4ccccc4OC)nn3c2C)cc1Cl | inactive: 17% |  |
| CC(C)OC(=O)c1c(NC(=O)C2c3ccccc3Oc3ccccc32)sc2c1CCCC2 | inactive: 2.64% |  |
| Cc1cccc(N2CCN(S(=O)(=O)c3ccc4[nH]c5c(c4c3)CCCCC5)CC2)c1C | inactive: 16.1% |  |
| Cc1cccc(C(=O)NCC(=O)OCc2cc(=O)n3nc(C4CCCCC4)sc3n2)c1 | inactive: -3.3% |  |
| COc1cccc(OCCSc2nc(C)c(Cc3ccccc3)c(=O)[nH]2)c1 | inactive: -2.62% |  |
| COc1ccc(NC(=O)CCCN2C(=O)CCn3nc(-c4cn(C)c5ccccc45)cc32)cc1OC | inactive: 0.364% |  |
| CCC(=O)N1c2ccc(S(=O)(=O)NCc3ccc(F)cc3)cc2CC1C (stereo not given) | inactive: -3.79% |  |
| COc1cc2c(cc1OC)C(COc1ccc3c(C)cc(=O)oc3c1)N(C(=O)c1cc(Cl)ccc1OC)CC2 (stereo not given) | inactive: 8.34% |  |
